Assay results reported in the supplement of paper PMC3334620.
Over roughly 33,000 sequences, “E-score (-0.5 to 0.5)” has its median near -0.036; the highest 2% begin near 0.37. This is one part of the list.

The sequences below were run against T1, Yer064c (UniProt P40041) (assay: PBM E-score (8-mer binding enrichment) (E-score (-0.5 to 0.5)); higher = stronger / more preferred TF binding; most listed sequences are background and not binding sites). Details: protein concentration: 200 nM; construct: GST-full length.
T1 sequence: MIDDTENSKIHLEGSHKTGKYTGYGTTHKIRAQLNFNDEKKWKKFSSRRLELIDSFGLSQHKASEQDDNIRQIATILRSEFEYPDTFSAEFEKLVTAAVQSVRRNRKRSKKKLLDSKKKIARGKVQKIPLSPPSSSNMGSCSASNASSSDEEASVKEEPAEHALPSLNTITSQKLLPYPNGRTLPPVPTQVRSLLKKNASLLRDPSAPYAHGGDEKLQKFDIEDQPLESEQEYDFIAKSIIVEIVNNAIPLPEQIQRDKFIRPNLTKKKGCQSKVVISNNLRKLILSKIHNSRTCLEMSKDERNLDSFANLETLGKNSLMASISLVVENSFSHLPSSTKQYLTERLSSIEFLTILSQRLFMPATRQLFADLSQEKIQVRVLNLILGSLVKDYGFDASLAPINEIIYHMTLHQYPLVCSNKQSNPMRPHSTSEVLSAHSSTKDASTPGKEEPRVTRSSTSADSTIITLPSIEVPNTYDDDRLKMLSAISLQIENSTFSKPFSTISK
Protocol: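 Universal 'all 10-mer' protein binding microarrays (Agilent AMADID 015681) probed with GST-tagged S. cerevisiae TFs (full-length or DBD) made by in vitro transcription/translation (PURExpress), about 100-200 nM. Bound TF was detected with fluorescent anti-GST. Each ungapped 8-mer (which stands for itself and its reverse complement) is scored by the PBM enrichment score (E-score), a modified Wilcoxon-Mann-Whitney statistic from -0.5 to +0.5, computed with the Universal PBM Analysis Suite. Scale: above 0.35 generally sequence-specific binding.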

| Sequence | PBM E-score |
| --- | --- |
| ATGTTCGG | -0.152 |
| ACGTGATC | 0.118 |
| CAAACATA | -0.0526 |
| CTATACTA | 0.0579 |
| AGACCAAA | 0.0161 |
| CTTCGTAC | -0.0836 |
| GAATCCGA | 0.173 |
| GATGTGGA | 0.0614 |
| AGGTGAAC | -0.138 |
| ACCTAACT | 0.00736 |
| CTACAAAC | -0.0868 |
| ATCATTCC | 0.258 |
| GACCCCCA | -0.224 |
| CCTCAACG | -0.208 |
| AAGCACAA | 0.0149 |
| CAGCATTA | -0.073 |
| CTAGCCAG | 0.0467 |
| AATCTCGC | 0.191 |
| AACTTTTG | 0.0289 |
| GGCTATAC | -0.0855 |
| AAAGCTAA | -0.0277 |
| GGACCTGA | 0.085 |
| ATGCAGGG | -0.177 |
| AGGTCCGC | -0.383 |
| CGATCGCA | -0.145 |

| Sequence | PBM E-score |
| --- | --- |
| CGCTGGGC | -0.101 |
| ACAAATAA | 0.0193 |
| CCACTCGC | -0.165 |
| CAGTCGGG | 0.0747 |
| TACGCACA | -0.0753 |
| AGTAATCA | 0.415 |
| ATCCGTTA | 0.0301 |
| AGGATGCA | -0.278 |
| ACGTCCTA | -0.223 |
| GAACGCAC | -0.259 |
| CAAAGACA | 0.0678 |
| TATTCGGA | 0.0216 |
| TGGGCGAA | 0.0204 |
| CGACCGAC | -0.0858 |
| GAACCGGA | -0.203 |
| CCTGGTTA | 0.138 |
| ATATCCGG | -0.0101 |
| ACAAATTG | -0.0454 |
| TCTCAGCA | -0.0656 |
| GTACGCGA | 0.0303 |
| GCTATCAC | -0.156 |
| TGGCCACA | -0.0441 |
| ACGCACTC | -0.0196 |
| AAACTTGA | 0.0954 |
| AGTAGCAT | -0.0837 |

| Sequence | PBM E-score |
| --- | --- |
| AAGACTCA | 0.48 |
| AGTTGCAA | 0.0093 |
| GCCCCCCA | -0.203 |
| ATGCTGCA | -0.224 |
| ACTTTTCT | 0.0949 |
| GCTACAGC | -0.105 |
| CACACAAC | -0.0138 |
| ACTGCCGA | -0.0796 |
| AAACAGTT | -0.031 |
| GATTGGCC | -0.0787 |
| AATAATGG | -0.0327 |
| TAACTAGA | 0.0826 |
| TGTAAGAA | 0.0347 |
| CAATCACG | 0.296 |
| ATAAACAG | 0.0432 |
| GGTAGATA | -0.191 |
| CGGTTATC | -0.198 |
| ACTGAATA | 0.239 |
| AACCCGCT | -0.234 |
| CTTAGGTA | 0.0257 |
| TCCGGCAA | -0.0552 |
| CGAGGTAA | 0.0334 |
| AGAGACCA | -0.0405 |
| AACGACTA | 0.393 |
| ATGATACA | 0.246 |

| Sequence | PBM E-score |
| --- | --- |
| GGCGTAAC | -0.294 |
| AAATACTT | 0.117 |
| ACATACGC | -0.0985 |
| CTATGGGA | -0.0985 |
| AAGTGCCC | -0.257 |
| ACCTTTCA | -0.167 |
| GACGATCC | -0.126 |
| ACGCGGCG | -0.184 |
| GTCCTAGA | 0.0117 |
| AAACCATG | 0.128 |
| TGACGTCA | 0.00032 |
| GAACTACC | -0.0642 |
| AGAACAGC | -0.2 |
| ATCATAGC | 0.316 |
| CTGCTGAC | 0.256 |
| CTAATCTA | 0.221 |
| GAACACGC | -0.019 |
| ACGCTCAC | 0.0311 |
| GTCAGATA | 0.188 |
| GATACAGC | -0.0633 |
| CTGATTGC | 0.274 |
| TCTTAAGA | 0.189 |
| CTCGGAGA | 0.0175 |
| AAATCGGG | -0.0343 |
| ATATCTAA | 0.128 |

| Sequence | PBM E-score |
| --- | --- |
| CTCCAATC | 0.0466 |
| ATATTGTC | -0.195 |
| GCCCAACC | -0.245 |
| CAGACACG | -0.14 |
| ATGCTAAG | -0.135 |
| AACGTGTG | 0.0865 |
| AAGAGCCT | -0.168 |
| CGCAAAAC | 0.0772 |
| ACTGCACT | 0.169 |
| CACGAATG | 0.113 |
| CATGACCG | 0.0801 |
| CTTGAGAC | 0.156 |
| ATAGGTAA | -0.0817 |
| ACGCCTTC | -0.319 |
| AGACCTCT | -0.108 |
| AGACAGCT | -0.0975 |
| AGTTAATA | 0.252 |
| GCACCCGC | -0.102 |
| CTCACCGC | 0.174 |
| CGAATCGC | 0.0546 |
| AGGGTGAT | 0.272 |
| ATCCTGCG | 0.00116 |
| TCCTTCCA | 0.0717 |
| CATTATTC | -0.0506 |
| GGGAAGAA | -0.131 |

| Sequence | PBM E-score |
| --- | --- |
| ATAGGTCG | -0.0203 |
| ACACAAGG | 0.00037 |
| ACTGCACA | -0.00816 |
| CATCGTCG | 0.0247 |
| ATGCCCAT | -0.131 |
| CGAAGACC | 0.0326 |
| CTTTGAGC | -0.039 |
| ATCCCCGG | -0.377 |
| CTCTTAAG | -0.00812 |
| AGTCGCCA | 0.356 |
| GTATTCAC | 0.119 |
| TCTCGTAA | 0.188 |
| CCCAGTCG | -0.0798 |
| ATGCTACG | -0.0498 |
| AAACGTAC | -0.0731 |
| GTTCTGCA | -0.117 |
| ATACGTAG | 0.0473 |
| AATTTCTG | -0.0692 |
| GAGCATAA | -0.112 |
| AAATTTAA | 0.259 |
| CCGTGCTA | -0.257 |
| ACTCAGCC | 0.335 |
| ACGAGCTG | -0.0932 |
| CCATAGGC | -0.241 |
| CTTCTGAC | 0.168 |

| Sequence | PBM E-score |
| --- | --- |
| CAAGCGCA | -0.164 |
| ATCACAGG | 0.166 |
| ACATGAAC | -0.0583 |
| TGCTCCAA | 0.0428 |
| CCACCAAC | -0.094 |
| TAAAGACA | -0.0439 |
| GAATGCTC | -0.18 |
| CGCCTCTC | -0.392 |
| CAGGCTGA | 0.274 |
| CTCATAAC | 0.052 |
| ATGACAAT | 0.0317 |
| ACCGGCGT | -0.0397 |
| ATGAATGC | -0.0117 |
| TCGCTACA | -0.0848 |
| ACATAACG | -0.0744 |
| CCTTTATA | -0.0483 |
| CCCCGTGC | -0.28 |
| CGCGTACC | -0.134 |
| TACGACAA | 0.0113 |
| CTACAGTC | 0.247 |
| GTGCGAAC | -0.0299 |
| AGCCTTTA | -0.0522 |
